# Hit rate of the full screen: of about 110,000 compounds, about 230 (0.21%) showed an effect of 50% or more. This is one part of the list.
# Molecular target: DPAP1 (Plasmodium falciparum, UniProt Q8IIJ9)
# Test: primary screen, percent inhibition; read by cleavage of a fluorogenic dipeptide substrate; higher = more effect of the substance
# Parameters: species or system P. falciparum D10 trophozoite lysates; single well
# 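Note: 30 min substrate incubation versus DMSO and 10 µM JCP410 controls.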
# Sequence of DPAP1 (Q8IIJ9 whole entry, looked up): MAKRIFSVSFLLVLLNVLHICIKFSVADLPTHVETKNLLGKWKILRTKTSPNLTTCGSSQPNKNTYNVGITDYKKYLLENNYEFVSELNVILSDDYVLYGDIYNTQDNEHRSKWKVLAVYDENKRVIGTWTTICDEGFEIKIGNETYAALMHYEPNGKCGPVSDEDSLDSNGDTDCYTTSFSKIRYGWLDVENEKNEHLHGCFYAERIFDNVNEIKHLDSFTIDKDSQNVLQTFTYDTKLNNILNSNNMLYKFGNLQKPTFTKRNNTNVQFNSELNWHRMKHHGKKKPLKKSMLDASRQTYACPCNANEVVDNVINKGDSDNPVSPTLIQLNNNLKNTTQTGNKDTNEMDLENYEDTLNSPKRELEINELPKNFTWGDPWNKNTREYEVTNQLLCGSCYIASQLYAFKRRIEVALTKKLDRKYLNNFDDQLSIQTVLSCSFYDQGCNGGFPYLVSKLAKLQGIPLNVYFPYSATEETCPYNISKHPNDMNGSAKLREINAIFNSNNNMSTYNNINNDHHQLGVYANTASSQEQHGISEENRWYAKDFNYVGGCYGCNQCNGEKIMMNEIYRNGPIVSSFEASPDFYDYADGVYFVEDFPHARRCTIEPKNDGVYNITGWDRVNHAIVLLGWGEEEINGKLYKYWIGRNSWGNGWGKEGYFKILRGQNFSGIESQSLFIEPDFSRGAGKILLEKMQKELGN
row,Structure (SMILES),% Inhibition @ 10 uM
1,Cc1ccc(CN2C(=O)N/C(=C/c3cc(Br)cs3)C2=O)cc1,-9.02%
2,CCOc1cc(N2CCOCC2)ccc1[N+](=O)[O-],0.467%
3,CCN(CC)CCN(C)CC(C)c1ccccc1 (centres unmarked),-3.8%
4,O=C(NC1CCCCC1)C1CCC(CNc2nc(S)nc3ccccc23)CC1 (centres unmarked),1.41%
5,O=C(COc1ccc(S(=O)(=O)NC2CCCCC2)cc1)NC1CCCCCC1,-4.62%
6,O=C(NCCCN1CCC(Cc2ccccc2)CC1)c1cc(-c2ccncc2)nc2ccccc12,2.79%
7,CC(C)OCCCNC(=O)Cn1ncc2c3ccccc3n(Cc3cccc(Cl)c3)c2c1=O,-1.58%
8,OCC1CCCN(Cc2ccncc2)C1 (centres unmarked),-1.64%
9,Oc1nc2ccccc2c(O)c1CCCOCc1ccccc1,3.53%
10,COc1ccc(S(=O)(=O)N2CCCC2C(=O)Nn2cnnc2)cc1 (centres unmarked),5.29%
11,CCN1CCN(C(=O)CCCn2c(=O)c3cccn3c3cccnc32)CC1,-3.91%
12,CCOc1ccccc1C(=O)n1nc(N)c2cc3ccc(C)cc3nc21,1.62%
13,CCC(C)(C)NC(=O)C1CCN(c2cnccn2)CC1,0.596%
14,COc1ccccc1CNC(=O)C1CCCN(c2ncnc3c2nc2n3CCCCC2)C1 (centres unmarked),5.27%
15,N#C/C(=C\c1ccco1)c1nc2ccccc2[nH]1,-4.01%
16,CSC=C(c1ccc(F)cc1)c1ccc(F)cc1,2.49%
17,C=CCSc1nc(=O)c2c(n1C)NC(=O)CC2c1ccc(F)cc1F (centres unmarked),0.596%
18,Cc1ccc2c(c1)-c1c(cnn1CC(=O)N1CCOCC1)CO2,0.383%
19,COc1ccc(CCNc2nc(-c3ccc(O)cc3)cs2)cc1OC,4.96%
20,O=C(O)[C@@H]1CSC(c2ccncc2)N1 (some centres unmarked),-0.999%
21,CC(C)(C)OC(=O)N1CCC(c2c(C(=O)NCCc3ccsc3)cnn2-c2ccccc2)CC1,-2.9%
22,COc1ccc(-c2c(C#N)c(N)nc(SCC(=O)c3ccc(O)c(O)c3)c2C#N)cc1,2.3%
23,COC(=O)CCc1cn2ccccc2n1,0.427%
24,CC(C)C[C@H](NC(=O)OCc1ccccc1)C(=O)NC(C#N)CC(C)c1ccccc1 (some centres unmarked),1.71%
25,CCn1cc(CCCC(=O)NCc2ccc(F)cc2)c2ccccc21,1.23%

row,Structure (SMILES),% Inhibition @ 10 uM
1,COc1ccccc1C(=O)Nc1ccc2c(c1)C(=O)N(CC(C)C)C2=O,2.75%
2,O=C(NCCc1ccccc1)c1cc2c(s1)CSC2,5.32%
3,CC(C)CC(NC(=O)c1cccc(Br)c1)C(=O)O (centres unmarked),-15.2%
4,Cc1noc(/C=C/c2ccco2)c1S(=O)(=O)N1CCC(C(=O)N(C(C)C)C2CCCCC2)CC1,-8.9%
5,CCCCOCCCNC(=O)c1c(-c2ccccc2Cl)noc1C,3.72%
6,O=P(OC(c1ccc(F)cc1)C(F)(F)F)(c1ccccc1)c1ccccc1 (centres unmarked),0.878%
7,COc1ccc(CN(C(=O)Cc2coc3cc(C)ccc23)C2CCS(=O)(=O)C2)cc1 (centres unmarked),-2.4%
8,CC(C)(C)c1ccc(C(=O)CC2(O)C(=O)Nc3ccc(Br)cc32)cc1 (centres unmarked),-0.46%
9,CC(C)COC(=O)NC(C)C(=O)O (centres unmarked),1.31%
10,O=C(Nc1ccc(S(=O)(=O)Nc2cnc3ccccc3n2)cc1)c1ccc(F)cc1,-0.95%
11,Cc1ccc(CN(CC(=O)Nc2ccc3c(c2)OCCO3)S(=O)(=O)c2ccccc2)cc1,-2.03%
12,CCOC(=O)N1CCc2c(sc3c2c(=O)n(Cc2ccccc2)c(=O)n3CC(=O)N(CC)CC)C1,-6.52%
13,CC1(C)CC2=NC3=C(C(=O)CC(C)(C)C3)C(c3ccc(C#N)cc3)C2=C(O)C1 (centres unmarked),3.99%
14,CC(C)c1ccc(-c2c(NCCN3CCCCCC3)c(=O)c2=O)cc1,-0.539%
15,Cc1cc(/C=C2\SC(N)=NC2=O)c(C)n1-c1ccc(F)cc1,2.05%
16,O=C(NCc1cccs1)c1cccc(COc2cccc(Cl)c2)c1,-2.97%
17,Fc1ccc(C(OCCN2CCCC2)c2ccc(F)cc2)cc1,4.08%
18,Cn1c2ccccc2c2cc(C3C(C#N)=C(N)N(c4cccnc4)C4=C3C(=O)CCC4)ccc21 (centres unmarked),0.687%
19,O=S(=O)(c1ccc(-n2cnnn2)cc1)N1CCN(c2ccccn2)CC1,-4.67%
20,CCOc1cccc2c1Oc1nc(-c3cc(OC)ccc3OC)nc(O)c1C2,-1.06%
21,O=C(/C=C1\NC(=S)N(c2ccccc2)C1=O)c1ccccc1,7.13%
22,O=[N+]([O-])c1ccc(S(=O)(=O)Nc2cccc3c2CCCC3)cc1,-2.36%
23,O=C(c1ccc(Cl)cc1)N1CCN(c2nnc(-c3ccccc3)c3ccccc23)CC1,-2.75%
24,CCON1C(=O)CN(C(=O)OC)C1c1ccc(Cl)cc1Cl (centres unmarked),0.76%
25,CC1(C)CC(=O)C2=C(C1)N(Cc1ccc(F)cc1)C(=O)C2(NC(=O)c1ccccc1)C(F)(F)F (centres unmarked),-4.18%

row,Structure (SMILES),% Inhibition @ 10 uM
1,CCn1c2c(c(=O)[nH]c1=O)C(c1cccc(OC)c1)C1=C(O)c3ccccc3C1=N2 (centres unmarked),2.46%
2,CCOC(=O)c1s/c(=N\C(=O)c2ccc(Oc3ccccc3)cc2)n(C)c1C,3.06%
3,COc1ccc(/C=C2/C(=O)N(c3ccccc3)C(c3ccccc3)S2(=O)=O)cc1 (centres unmarked),3.69%
4,CCCc1c(C)nc2ccc(OC)cc2c1Cl,-1.99%
5,CNCCCCOc1cccc2c(=O)c3ccccc3oc12,-0.305%
6,Cc1ccc(C2=NN(S(C)(=O)=O)C(c3cc4cc5c(cc4nc3Cl)OCCO5)C2)cc1 (centres unmarked),2.76%
7,O=C1NC(c2ccccc2Cl)Nc2sc3c(c21)CCCC3 (centres unmarked),-0.769%
8,C=CCc1cc(/C=C2/C(=N)N3C(SC)=NSC3=NC2=O)cc(OC)c1O,2.59%
9,O=C(O)C1C2C=CC(C2)C1C(=O)N1CCN(C(c2ccccc2)c2ccccc2)CC1 (centres unmarked),-5.46%
10,CSCC[C@@H](C(=O)NC(C)c1cccs1)N1Cc2ccccc2C1=O (some centres unmarked),1.26%
11,COc1ccc2cc(-c3nc4cc(C)ccc4[nH]3)c(=O)oc2c1,4.93%
12,O=C(c1ccc(CS(=O)(=O)c2cccc(C(F)(F)F)c2)o1)N1CCN(c2ccccn2)CC1,-4.96%
13,CC(NC(=O)c1sc2nc(-c3ccncc3)ccc2c1N)C12CC3CC(CC(C3)C1)C2 (centres unmarked),7.98%
14,NS(=O)(=O)c1ccc2c(c1)C1C=CCC1C(c1cccc3ccccc13)N2 (centres unmarked),-1.37%
15,COc1ccc(-c2noc(CN(C)S(=O)(=O)c3ccc(C)cc3)n2)cc1OC,5.5%
16,Cc1ccc(Nc2ccccc2C(=O)O)cc1C,12%
17,CC(C)CCNC(=O)CCC(=O)N1CC2CC(C1)c1cccc(=O)n1C2 (centres unmarked),0.623%
18,Cc1cc(S(=O)(=O)Oc2cccc3cccnc23)c(Cl)cc1Cl,-0.597%
19,NC(=O)CSc1nc2ccccc2n1Cc1ccccc1,-5.85%
20,COc1ccc(Cn2c(SCC(=O)Nc3cc(C)[nH]n3)nc3nccnc3c2=O)cc1,4.73%
21,CCOCCCNCc1ccc(OC(C)C)c(OC)c1,0.387%
22,Clc1ccc(N2CCN(Cc3c[nH]c4ccccc34)CC2)cc1,0.708%
23,COCCCN1C(=S)NC2CC1(C)Oc1ccccc12 (centres unmarked),-9.78%
24,Cc1cc(C)c2nc(N3CCC(C(=O)NC4CCCCCC4)CC3)sc2c1,-1.58%
25,C=CCNC(=O)c1cc2c(=O)n3cccc(C)c3nc2n(CCN2CCOCC2)c1=N,3.6%

row,Structure (SMILES),% Inhibition @ 10 uM
1,O=C(NCCc1ccc(Cl)cc1)C1CCN(S(=O)(=O)c2cccc3cccnc23)CC1,1.9%
2,COc1ccc(C)cc1N(CC(=O)N[C@H](C)c1ccccc1)S(C)(=O)=O,6.07%
3,COc1ccccc1-n1cnc2cc(C(=O)NCC3CCCO3)ccc21 (centres unmarked),1.2%
4,O=C(c1ccc(Cl)c([N+](=O)[O-])c1)N1CCN(c2ccccc2)CC1,-1.22%
5,CCO/C(O)=C1/C(C)=Nc2nc(SC)nn2C1c1ccc(-c2ncc(-c3ccccc3)o2)cc1 (centres unmarked),-3.13%
6,c1ccc2c(c1)CCC(NCc1ccncc1)C2 (centres unmarked),5.03%
7,CN(CCNC(=O)c1noc2c1COc1ccccc1-2)C1CCCCC1,2.73%
8,COc1ccc(Cl)cc1C(=O)Nc1c2c(nn1C(C)(C)C)CS(=O)(=O)C2,0.566%
9,CCC(C)n1c(=O)c2sccc2n2c(CCCC(=O)N3CCC(C(N)=O)CC3)nnc12 (centres unmarked),-4.17%
10,CC(C)(C)OC(=O)N1CCC(c2c(C(=O)O)cnn2C(C)(C)C)CC1,2.39%
11,Cn1c(C(=O)N2CCCC(C(=O)NCc3ccccn3)C2)cc2sccc21 (centres unmarked),-7.84%
12,CN(C)C(=O)[C@@H]1OC(C)(C)O[C@H]1C(=O)N(C)C,-5.69%
13,COc1cc(OC)cc(C(=O)NCCCCc2ccccc2)c1,-2.45%
14,Cc1nc2c(-c3ccccc3)c(C)nn2c(C)c1CCC(=O)NC(C)C,-4.1%
15,COc1ccc(CC(=O)NC2CCCCC2)cc1,-6.91%
16,COc1ccc(NC(=S)Nc2ccccc2)cc1,1.33%
17,CCOc1ccccc1NC(=O)C1=C(C)NC(=O)NC1c1cccc(Cl)c1 (centres unmarked),-4.39%
18,O=C1CSc2nnc(C3COc4ccccc4O3)n2N1 (centres unmarked),4.47%
19,Cc1nc2ccc(S(=O)(=O)N(C)CC(=O)N3CCCCCC3)cc2s1,-0.522%
20,Cc1ccc(CNc2ncnc3c2cnn3C)cc1,5.99%
21,O=C(O)C(Cc1c[nH]c2ccccc12)Nc1ncnc2sc3c(c12)CCC3 (centres unmarked),6.7%
22,Clc1ccc(-c2nnc3sc(-c4ccccc4)nn23)cc1,18.2%
23,COC(=O)c1c(C)n(CCc2ccccc2)c2c1cc(O)c1ccccc12,3.72%

# — PMC6919601, “Identification of Plasmodium dipeptidyl aminopeptidase allosteric inhibitors by high throughput screening” (PLoS ONE, 2019)
